Reference: PMC4336329 (PLoS ONE, 2015)
Screen size: about 310,000 compounds; about 2,200 (0.71%) showed an effect of 50% or more. The effect is printed as a negative number. This is one part of the list.

Target: human ether-à-go-go-related gene (hERG) potassium channel (human, UniProt Q12809)
Assay: primary screen, population patch clamp on CHO cells stably expressing hERG

human ether-à-go-go-related gene (hERG) potassium channel, sequence (Q12809 whole entry, looked up): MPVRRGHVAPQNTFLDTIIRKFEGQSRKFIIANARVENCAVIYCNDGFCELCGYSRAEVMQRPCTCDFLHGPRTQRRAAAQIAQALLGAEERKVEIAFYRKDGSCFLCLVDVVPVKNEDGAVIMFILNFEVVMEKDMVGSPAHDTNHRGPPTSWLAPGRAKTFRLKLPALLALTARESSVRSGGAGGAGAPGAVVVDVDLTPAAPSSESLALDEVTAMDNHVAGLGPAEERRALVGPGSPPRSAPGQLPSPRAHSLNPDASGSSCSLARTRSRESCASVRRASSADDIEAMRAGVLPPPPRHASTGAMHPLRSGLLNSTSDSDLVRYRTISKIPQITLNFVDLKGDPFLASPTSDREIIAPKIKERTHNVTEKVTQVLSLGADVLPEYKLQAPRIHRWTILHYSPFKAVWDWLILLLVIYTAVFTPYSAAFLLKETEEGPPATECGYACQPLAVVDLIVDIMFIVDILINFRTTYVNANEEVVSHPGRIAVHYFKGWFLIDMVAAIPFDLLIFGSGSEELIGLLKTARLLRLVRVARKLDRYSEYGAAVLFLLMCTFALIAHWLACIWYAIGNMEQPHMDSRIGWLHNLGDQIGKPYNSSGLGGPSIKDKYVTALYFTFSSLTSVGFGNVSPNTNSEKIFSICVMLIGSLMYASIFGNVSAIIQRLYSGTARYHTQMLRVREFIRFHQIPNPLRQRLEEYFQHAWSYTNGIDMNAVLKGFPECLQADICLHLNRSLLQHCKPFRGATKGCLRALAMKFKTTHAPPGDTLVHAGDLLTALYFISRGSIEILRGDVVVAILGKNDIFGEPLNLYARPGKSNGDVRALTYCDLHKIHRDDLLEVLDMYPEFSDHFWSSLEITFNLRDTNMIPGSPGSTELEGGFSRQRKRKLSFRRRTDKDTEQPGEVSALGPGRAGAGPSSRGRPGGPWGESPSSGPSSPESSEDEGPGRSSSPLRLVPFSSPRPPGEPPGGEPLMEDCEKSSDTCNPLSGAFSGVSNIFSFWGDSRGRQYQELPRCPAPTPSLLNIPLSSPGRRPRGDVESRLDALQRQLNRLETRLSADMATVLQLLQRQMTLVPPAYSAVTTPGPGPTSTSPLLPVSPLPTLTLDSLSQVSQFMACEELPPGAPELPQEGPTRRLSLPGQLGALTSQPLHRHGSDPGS

| SMILES | hERG current change (%, negative = inhibition) at 1uM [%] |
| --- | --- |
| O=C(CO/N=C/c1ccccc1)N1c2ccccc2Oc2ccccc21 | 4.8 |
| CCOC(=O)c1sc(NC(=O)Nc2ccc(Cl)cc2)nc1C | 11.5 |
| CCSc1ccccc1C(=O)NCc1ccc(S(N)(=O)=O)cc1 | 4.41 |
| CC(C)NC(=O)NNC(=O)Cn1nnc(-c2cccc(Cl)c2Cl)n1 | 13.5 |
| Cc1ccccc1-n1cnnc1SCC(=O)Nc1cccnc1Cl | 10.1 |
| Cn1cccc1/C=C1\SC(=Nc2ccc(O)cc2)NC1=O | -0.0487 |
| Cl.OC(COc1ccc2c(c1)OCO2)CN1CCc2ccccc2C1 (stereo not drawn) | -19 |
| CC(C)=CCc1c(O)c(CC=C(C)C)c2c(c1O)C(=O)CC(c1ccc(O)cc1)O2 (stereo not drawn) | 11.5 |
| C=CCNC(=O)/C(=C/c1ccc(Br)cc1)NC(=O)c1ccccc1OC | -15.5 |
| CC(C)c1ccccc1OCC(=O)N1CCCN(C)CC1 | -13 |
| COc1ccc(NC(=O)CC2(CC(=O)N3CCOCC3)CCCC2)cc1Cl | -4.37 |
| COC(=O)C1=C(c2ccc3ccccc3c2)C[C@@H]2CC[C@H]1N2C(=O)N1CCC(O)CC1 | 9.93 |
| O=C(O)CCCN1C(=O)C2C3CCC(O3)C2C1=O (stereo not drawn) | 12.1 |
| O=C(Cc1n[nH]c(=O)c2ccccc12)N1CCN(c2ccc(F)cc2)CC1 | -4.24 |
| CCOC(=O)C1CCN(C(=O)Cc2c(C(=O)O)n(C)c3ccccc23)CC1 | 2.08 |
| Cc1nnsc1C(=O)NCc1c(F)cccc1Cl | 12.3 |
| CCOc1ccc(NC(=O)/C(=C\c2ccc(OC(C)=O)c(OC)c2)NC(C)=O)cc1 | 10.8 |
| O=C(N/N=C/c1ccco1)C(O)C(O)C(=O)N/N=C/c1ccco1 (stereo not drawn) | 15.8 |
| CCCCC#Cc1ccc(C(=O)NNC(=O)Nc2cc(Cl)cc(Cl)c2)o1 | 7.86 |
| COc1cc(/C=C2\SC(=Nc3ccccc3)N(CCc3c[nH]c4ccccc34)C2=O)ccc1OC(C)C(=O)O (stereo not drawn) | 16.6 |
| Cc1c(CN(C)C(=O)c2ccc(Br)o2)cnn1C | 3.38 |
| CCCN(CCC)Cc1c(C(=O)N/N=C/c2ccncc2)nnn1-c1nonc1N | -30.7 |
| CC(C)(C)c1ccc(OCc2ccc(C(=O)N3CCOCC3)o2)cc1 | 2.68 |

| SMILES | hERG current change (%, negative = inhibition) at 1uM [%] |
| --- | --- |
| Cc1c(C(=O)NC2CCOC2)oc2c(F)cccc12 (stereo not drawn) | 54 |
| O=C(CN1C(=O)CCS(=O)(=O)c2ccccc21)Nc1cccc(Cl)c1 | 1.59 |
| O=C(CN1C(=O)C2CC=C(Cl)CC2C1=O)Nc1ccc(C(=O)O)cc1 (stereo not drawn) | 5.85 |
| Cc1onc(C(=O)NN)c1-c1csc(COc2ccccc2)n1 | 4.25 |
| CCC(C)[C@H](NC(=O)[C@@H]1CSC2c3ccccc3C(=O)N21)C(=O)NCc1ccco1 (stereo partly drawn) | 16 |
| Cc1ccc2nc(NC(=O)C3CCN(S(=O)(=O)c4cccnc4)CC3)sc2c1 | 12.8 |
| CCOc1cnc(-c2c(-c3c(F)cccc3Cl)noc2C)o1 | 13.5 |
| COC(=O)c1cc(NS(=O)(=O)c2ccc(OC)c(OC)c2)ccc1Cl | 8.4 |
| COc1ccc(S(=O)(=O)N2CC(=O)Nc3ccccc32)cc1F | 19.7 |
| Cc1ccccc1-n1c(O)c(/C=N/N2CCOCC2)c(=O)[nH]c1=S | 8.92 |
| COc1cc(/C=C2\C(=O)NN(c3ccc(C)cc3)C2=O)cc([N+](=O)[O-])c1O | 13 |
| O=C(Nc1ccc2c(c1)OCCO2)c1oc2ccccc2c1NC(=O)C1CC1 | 9.3 |
| CN(c1ccccc1)S(=O)(=O)c1ccc(NC(=O)c2ccc(F)cc2)cc1 | 10.8 |
| COc1cccc(CN(C)C(=O)/C=C/c2ccc(S(=O)(=O)N3CCCCCC3)cc2)c1 | -2.27 |
| COCc1cc(C)nc(SCC(=O)Nc2cccc3cccnc23)c1C#N | 8.27 |
| C/C(Cc1ccccc1)=N\NC(=O)CNC(=O)c1ccc(C(C)(C)C)cc1 | 4.69 |
| Cc1ccc(NCC(=O)N/N=C/c2cccc(Oc3ccccc3)c2)cc1 | 18.2 |
| FC(F)(F)c1cccc(CNC2c3ccccc3-c3ccccc32)c1.O=C(O)C(=O)O | 13.9 |
| Cc1c(C(=O)N/N=C/c2ccc(-c3ccccc3[N+](=O)[O-])o2)sc(N)c1C#N | 9.16 |
| Cc1ccc(S(=O)(=O)NC(CC(C)C)C(=O)N2CCCC2)cc1 (stereo not drawn) | 10.1 |
| O=C1CCN(Cc2nc(-c3ccc(Cl)cc3)no2)CCN1 | 5.25 |
| COCCNC(=O)c1cccc(OC2CCN(Cc3ccc(C(=O)OC)cc3)CC2)c1 | 6.44 |
